Assay results reported in PubChem BioAssay (NCI).
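Method: 48-hour compound exposure of cells in 96-well plates, five concentrations, linear interpolation of endpoints. Here, GI50 denotes the concentration required for 50% inhibition of growth. At the TGI there is no net growth.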

These molecules were tested on NCI-H322M lung (assay: NCI-60 cell line screen, 48 h).

| SMILES | GI50 [µM] | TGI [µM] |
| --- | --- | --- |
| ClCc1cccc(Cn2cnc3c(Cl)ncnc32)c1 | 1.89 | 3.5 |
| COc1cc(-c2nn(-c3ccc(NC(=O)c4ccc(Cl)c(Cl)c4)cc3)cc2-c2ccncc2)ccc1Cl | > 100 | > 100 |
| CC(=O)NNc1nc(C)c(C(/C=C/c2ccc3c(c2)OCO3)=N/Nc2ccccc2)s1 | – | > 100 |
| CCC[CH2][Sn-]([CH2]CCC)([CH2]CCC)[O]c1cc(Cl)c(Cl)cc1Cl | 0.193 | 0.498 |
| C=CC(=O)N1C/C(=C\c2ccc(N(C)C)cc2)C(=O)/C(=C/c2ccc(N(C)C)cc2)C1 | – | > 100 |
| CC1(C)OC2OC(COC(=O)C=[N+]=[N-])C3OC(C)(C)OC3C2O1 (stereo not given) | – | > 100 |
| CNC(=O)c1cc(OC2CCC(NC(=O)Nc3ccc(Cl)c(C(F)(F)F)c3)CC2)ccn1 (stereo not given) | 12.7 | 37 |
| COc1cccc(C2CC(C)(N3CCCC3)Oc3cc4c(cc32)OCO4)c1O (stereo not given) | – | > 100 |
| Cc1ccc([N+](=O)[O-])cc1S(=O)(=O)Nc1ccc(C2=NN(c3ccc([N+](=O)[O-])cc3[N+](=O)[O-])C(c3ccccc3)C2)cc1 (stereo not given) | – | 34.6 |
| COc1cccc2cc(C)c(C(=O)c3ccccc3)nc12 | – | > 100 |
| O=C(Nc1ccc(N2CCNCC2)cc1)c1[nH]ncc1Nc1ncnc2sc3c(c12)CCC3 | 0.139 | 1.44 |
| CC(=O)n1c(COS(C)(=O)=O)nc2ccccc21 | – | > 100 |
| Cn1ccnc1Sc1ccc(/C=N/NC(=O)c2ccccc2O)cc1[N+](=O)[O-] | – | > 100 |
| Cc1c2c(nn1-c1ccc(S(=O)(=O)NC(=S)Nc3ccccc3)cc1)-c1ccccc1CC2 | > 50 | > 50 |
| O=C1NCc2ccc3c(-c4cccc(Cl)c4)c[nH]c3c21 | 1.21 | > 50 |
| Cc1ccc(N=Nc2c(C)nn(C(=O)CC(=O)Nc3ccccc3)c2C)cc1C | – | > 100 |
| Cn1ccnc1S/C(=C\C=C(C#N)C#N)c1ccc(Cl)cc1 | 11 | > 38.1 |
| Cc1ccc2c(=O)cc(-c3csc4ccccc34)[nH]c2n1 | – | 66.3 |
| CCN(CC)CCOc1nc2ccc(OC)cc2c2c1-c1ccc(OC)cc1C2=O | 0.533 | 2.04 |
| CCCCOC(=O)C(=O)C(CCC(=O)c1ccc(C)cc1)C(=O)C=C(C)C (stereo not given) | – | > 100 |
| CCC1C(=O)C[C@H]2[C@@H]3C(O)CC4=CC(=O)CC[C@]4(C)[C@H]3CC[C@]12C (stereo not given in full) | – | > 50 |
| O=C(NNc1nc(Cl)nc(N2CCN(C(c3ccccc3)c3ccccc3)CC2)n1)c1ccccc1 | 1.67 | 3.54 |
| CCOC(=O)/C(=C\NCC(O)c1ccccc1)c1nc2ccccc2[nH]1 (stereo not given) | – | > 100 |

| SMILES | GI50 [µM] | TGI [µM] |
| --- | --- | --- |
| O=C1CC(O)C=C1Nc1ccc(Cl)cc1 (stereo not given) | – | > 100 |
| CCN1CC(C)Cn2c(=O)[nH]c3cc(Br)cc1c32 (stereo not given) | – | > 100 |
| COc1cc(OC)c2c(O)cc(CC(C)O)cc2c1 (stereo not given) | – | > 100 |
| Cc1cn(C2CC(n3cc(Cn4cc(F)c(=O)[nH]c4=O)nn3)C(CO)O2)c(=O)[nH]c1=O (stereo not given) | – | > 100 |
| O=[N+]([O-])c1ccc(C(c2c[nH]c3ccccc23)c2c[nH]c3ccccc23)cc1 | – | 31.9 |
| CSc1nc(NC2CCCC2)c2cc[nH]c2n1 | – | > 100 |
| COc1ccc2c(c1)[nH]c(=O)c1c3cc(C)c(C)cc3cn21 | 0.052 | 2.1 |
| CC1=NOC2(C1)/C(=N/O)CCC/C2=N\O (stereo not given) | – | > 100 |
| CC(C)(CO)CNc1cc(=O)[nH]c(N)n1 | – | > 100 |
| COc1ccc2[nH]c3c(c2c1)CCN(C)CC3 | – | > 100 |
| Cc1ncc(CN=Cc2ccc(Cl)cc2)c(N)n1 | – | > 100 |
| COc1ccc(N[C@H](CS(=O)c2ccc(C)cc2)c2ccc(F)cc2)cc1 (stereo not given in full) | – | > 100 |
| O=C(c1ccccc1)C(c1ccccc1)C1(O)C(=O)Nc2c(Cl)cc(Cl)cc21 (stereo not given) | – | 40.4 |
| CSc1c(C(=O)Nc2ccccc2)c(N)nn1-c1ccccc1 | – | > 100 |
| COc1ccc(-c2nc3sc(C)cn3c2/C=C/C(=O)c2cc(OC)c(OC)c(OC)c2)cc1 | 5.65 | > 100 |
| CC(=O)Nc1ccc2c(c1)c(C1=C(c3cn(C)c4ccccc34)C(=O)NC1=O)cn2C | 9.59 | > 25 |
| CCOC/N=C(/N)NC#N | – | > 100 |
| CN(C)c1ccc(/C=N/Nc2nc3ccccc3c(=O)n2-c2ccccc2)cc1 | – | > 100 |
| CCCC/C=C1\CCC(CN2CCCCC2)C1=O (stereo not given) | – | 47.4 |
| Cc1ccc(F)cc1NC(=O)O/N=C(\Cl)C(C)C | – | 33.1 |
| COc1cc(OC)c([C@@H]2OC(=O)C3C2C(=O)O[C@H]3c2cc(OC)c(OC)cc2OC)cc1OC (stereo not given in full) | – | > 100 |
| N/N=C(\C(=O)Nc1c(Cl)cc([N+](=O)[O-])cc1Cl)C(c1cnc2ccc([N+](=O)[O-])cc2n1)[N+](=O)[O-] (stereo not given) | – | > 100 |
| N=C1C(c2nc(-c3ccc(Br)cc3)cs2)=C(O)CN1Cc1cccnc1 | 35.8 | > 100 |
